Values marked as one replicate rest on one cluster of the flow cell; about a third of the high ones do not repeat.
System: ATP
Assay: switch fluorescence ratio, 500 uM ATP over buffer (Cy3 cluster intensity, sum of 5 cycles each) (fold (ratio)); higher = stronger signal-on switching upon ATP binding; sequences stand for … in TCGTCGGCAGCGTCAGATGTGTATAAGAGACAGTTTTTTTTTTTTTTTTTTTTTTTTT…TC
Details: aptamer strand: ATP DNA aptamer (quencher-CACCTGGGGGAGTATTGCGGAGGAAGG + anchor), 100 nM annealed; ATP concentration: 500 uM; one replicate
Procedure, shortened: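 Values give the fluorescence ratio for each switch-domain sequence, averaged from per-cluster ratios of summed target-cycle to summed buffer-cycle Cy3 intensity. The Cy3-labelled switching-strand clusters sat on a modified Illumina MiSeq flow-cell, were annealed to 100 nM quencher-labelled ATP aptamer, and were imaged in selection buffer, then after 15 min with 500 uM ATP at 22 °C. Five cycles ran with NaOH stripping and re-annealing between them, and clusters outside 100-1000 RFU were excluded.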
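Further: ATP exposure 15 min at 22 °C before imaging.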

Sequence	switch fluorescence ratio
CGCTAGTTCG	1.02
AGGATAGTCT	1.06
TTACCCCATA	1.06
CCGCCTAGTG	1.57
ACCGATTAGA	1.04
CCCAAAATTT	0.954
GGCATAGTTA	0.976
CACCTCGCCA	1.19
CCCTCGTGAC	1.62
ATCTCTACAT	1.02
AGCGCTGTTG	1.02
CCTGGATTTG	1.04
GTTAGAAATC	0.976
TGTATTTGTA	0.995
GAAATTACTG	0.997
GCACGCACCC	1.53
GGCGTTGCAG	0.956
CGCTAGCGG	0.989
TTCAGTATA	1.13
AAGTGTTGCA	0.971
GGTGCCAGGT	1.05
ATAACTTGCT	1.01
TAAGATGC	1.26

Sequence	switch fluorescence ratio
GGCCATGACG	0.95
TTTAAAAAA	1.05
GATTCAATTC	1.16
CGATTTTAT	1
CGCGTATTAG	1.02
TTCGACTAGT	0.996
GTGACCATGT	0.99
GGCATAATCT	1.05
ATGTAATATC	1.07
GCGGGACTTT	0.952
GGCCCCATTT	0.996
TTTTCCTCAA	1.11
CAGTAGGTGC	1.11
ATCCGTGCCT	1.04
GCGGGCACAT	0.982
TGTAAACCGA	0.969
ATAAAGTTAG	0.977
CGAACAAGTC	0.997
AGGGGACAAG	1.04
TACAACCGCC	1.31
AATGTAGTA	1.04
CGGCGTACAC	1.2
GTGTGACTCT	1.03

Sequence	switch fluorescence ratio
AACTTCTATG	1.01
ACGCTTTCCC	1.23
CGTGGGGCCT	1.01
CCCGCAAATT	4.9
CGTTTACGAT	0.996
CTACCTTAT	1.11
GTGAATCCTT	0.962
AGGTAACGTG	0.95
TCAATGCGA	1.19
ATAGGTTGGT	0.988
CGCGTTTGGC	1.07
GATTTAAATC	0.984
ATTCACTAGC	1.01
GCGCTTGCAA	1.03
GATACTTGCG	0.973
CTTTTTGTTA	1.01
CAGGATACGT	1.06
ATGGGACGAC	1.05
ATATGGCATT	0.988
ACATCTAGTC	1.01
TGTTCCCGTT	1.02
TCATGCTATA	0.977
AAATCTTAGC	1.02

Sequence	switch fluorescence ratio
AAATCGTCTG	1.05
CTCACATCGT	0.989
CTAATCTGTT	0.976
CTTTCGCTGA	1.07
CTGACCGACT	2.13
GGCGTAGCGC	1.19
CTAAACGTTC	1.07
CTTAAAACAT	0.972
CTAAGGTGCT	1.37
AAGTTAGCGC	1.01
GCGCCAGTAG	1.03
GAAGTGGTCA	0.985
CACTTTTTCG	1.01
TGTGCTGCGT	0.996
TCTTACAGCG	0.963
ATGTGTACCG	1.06
AAGATATGGT	0.982
GGTATAGTAT	0.999
TATAGCTCTA	1.04
CAGGTACGTA	1.01
TGCGGCAGTG	0.967
TGGCTAAAAG	1.01
AGGATTAGTT	1.02

Sequence	switch fluorescence ratio
GCTGCGAAAA	0.968
AGGGTGGCA	0.99
CGCCTGGCTC	1
CGTAAACCTT	2.48
GCTGCTGGT	1
TGGGTCCATC	0.981
TTCAAAATGA	0.956
GAATGCAGCT	1.09
CCTGGGGGAC	1.04
ACTCTTTAAC	1
CGGAACCCAG	0.954
GTATGCTACG	0.931
GCGGCGGGTG	1.08
GATGCATAGC	1.07
ATTAGAACTC	0.96
TAATTAGATC	0.997
CGGCAGGCGA	1.04
TCCTATGCCT	1.02
CTATCTGGTT	1.02
TCTTGCTGTT	0.959
ATTGCGTCAC	0.989
TACTGGGTCT	0.979
GAAGGGCAAT	0.954

Sequence	switch fluorescence ratio
TACGTGCGGA	1.01
GAAGTCGCCT	0.962
GAATCGGC	0.965
GACGTCTTGC	1.04
CCAAAGCGTA	1.44
TTGAGAGCCG	1.03
TATCCCTGT	1
GATTCTTT	0.999
AACCCATAGC	1.08
GCTTCGTCGC	1.2
TTAGCTTGAT	0.99
TCACCGGGGC	1.13
TAGTTTCAGT	0.945
TTTATACTTG	0.988
GGAGGTCGCT	1.03
TCCTAGGCTT	1.01
TGTTGACGTT	1.06
GGTCGCCCTA	0.974
GTATGCAAGT	0.962
GAAAAAGTTT	1.04
TGGACAGGGG	1.06
AGGATTTGCG	1
CAGGGTTTGT	0.992

Sequence	switch fluorescence ratio
TGTTCGTGAT	1.6
CTTGTAGTGG	1.01
ATTGATGGCT	1.02
GCTGGGAACA	0.992
GTTGGGCGCC	0.987
CATCCTCCGA	3.4
ACCGCGCAGT	1.31
TGTAGTCGCT	1
AGGCAGCAGC	1.06
TTACGTACCC	1.43
TGGGTTACAA	0.958
CCATACTTAG	1.03
CTATGCTACG	0.993
AGCTGGGAG	0.993
TTATTGACCG	1.15
TGAGAATACC	1.03
CATAAGCCGA	0.995
TCTGATCAGT	0.987
CGGGGCCGCA	1.08

— the supplement of paper PMC10126150
